Data: the supplement of paper PMC10126150
Sequences with one replicate were seen in a single cluster, so their values are uncertain.

Test system: ATP
Assay: switch fluorescence ratio, 500 uM ATP over buffer (Cy3 cluster intensity, sum of 5 cycles each) (fold (ratio)); higher = stronger signal-on switching upon ATP binding; sequences stand for … in TCGTCGGCAGCGTCAGATGTGTATAAGAGACAGTTTTTTTTTTTTTTTTTTTTTTTTT…TC
Conditions: aptamer strand: ATP DNA aptamer (quencher-CACCTGGGGGAGTATTGCGGAGGAAGG + anchor), 100 nM annealed; ATP concentration: 500 uM; one replicate
Outline: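 Between each of five buffer/ATP cycles, the flow-cell was stripped with NaOH and re-annealed. Each cycle imaged Cy3-labelled switching-strand clusters, annealed to 100 nM quencher-labelled ATP aptamer on a modified Illumina MiSeq flow-cell, first in selection buffer and then after 15 min with 500 uM ATP at 22 °C. The fluorescence ratio is summed target-cycle over summed buffer-cycle Cy3 intensity per cluster, averaged per switch-domain sequence, with clusters outside 100-1000 RFU excluded.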
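Further: ATP exposure 15 min at 22 °C before imaging.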

Sequence | switch fluorescence ratio
CTCTAAAAGG | 1.04
GGGTTAATAG | 0.998
CTCCTGGGCG | 1.04
TTAATCTTGG | 0.972
GGGTTATT | 0.985
ACATTCAGGA | 1.01
GGGGAAGGAC | 1.03
ATTCTATCTG | 0.982
ATGCATCACG | 0.961
GTCGAGAAAA | 1.03
AGTGTCACTC | 1.06
ACCCTGATGT | 1.03
AGGCGACGCC | 0.977
AGCTGGTGT | 1.06
AAGTCTGTA | 0.956
AGCGTCTACA | 0.993
TAGCCGAATG | 0.987
CCACCTATGA | 1.09
AACGGGTTTG | 1.02
CATTTATTGG | 1.02
CATTCAGAGT | 0.985
AAGACAGGCT | 1.01
CATCCACTGT | 1.22

Sequence | switch fluorescence ratio
TAAGAAAGAT | 1.02
AAACGTCTTA | 0.997
TGCTGAGTGA | 0.967
CGGCGCAAGT | 3.92
CTTTCCGAAC | 1.58
ATGCTAACTT | 1.06
AGCAGCCCCC | 1.21
TCGACGACCG | 0.966
ATGTGCTAAT | 1
GGTCTTTTTG | 0.994
GAGGATCCGA | 0.943
AGGCGCGTTT | 0.998
AGGTTTCATA | 0.981
CCGGTACGTA | 1.01
AGGAAGACGC | 1.03
TTTGTGCAT | 0.992
TGGGCTACTA | 0.99
AGAGCGTAAA | 1.01
AGATCTGCGG | 0.957
GAAAAATCAA | 1.01
GCTTTCATGC | 0.988
AATGATGACC | 0.956
TGGTTATGCT | 0.957

Sequence | switch fluorescence ratio
CAGAGCTCTA | 1.06
TCTGCAGGCG | 1.05
CGCTGCTGGG | 1.04
AGTTCTGCC | 1.07
TGTAATCTTT | 0.993
CAGGGCTCGG | 0.954
ACGTTTTTAC | 1.17
TTGAGAGCT | 1.02
GCCATAGGTA | 0.96
TGCAGTGGGT | 1.01
AGGAGCTTGT | 0.991
TATAATTCGT | 1
ACTAGGCTTT | 0.981
AGTTTGGGAT | 0.982
TGATTCTACT | 0.98
AATGCACTGT | 1.05
AAGCAGAGAT | 0.978
TGTGGCACGC | 1.05
GTGTTGGGAA | 1.02
CACATGGACC | 1.06
CGTTTGTCCA | 0.953
CGCCTAACT | 1.17
TGGGGCCTTG | 1

Sequence | switch fluorescence ratio
GGGAGTCTCA | 1.01
ACGAGCGGTA | 1.08
TTTTGCGTT | 1.02
GGCAGATGTG | 1.03
AGAATGTCGT | 1
ATTCGAGAGG | 0.956
GAGGGTGGGT | 0.953
AAAGCAATGA | 2.12
CCGTGGTTCC | 1.17
AGGCTCAAAT | 1
GCGGACAGAT | 1.02
GGAGGGG | 0.999
CTGGCCAAAT | 0.99
GGGTAGGTAT | 1.11
CCGGATGTAT | 1.13
ATGGGCCGAA | 0.94
GAGTTACGTG | 1.01
GCAGTAACCC | 1.19
TCGATAAGTA | 0.971
TTCATATACG | 1.04
TAGGTCGCGA | 1.02
ATTTCGTGTT | 0.999
GATACTAC | 1.25

Sequence | switch fluorescence ratio
AGAAATCCAG | 1.02
CGGTAAGAAT | 1.01
TTACAAGCAG | 1.03
GCGACGAAGA | 1.08
TTGTCATATG | 1.04
AACGCAAGG | 2.42
TATTGATAAC | 0.984
TAAACATCTC | 1.02
TCATGCGCTT | 1.06
CAATTACATT | 1.01
AGGCAGAGGC | 0.946
AAACTGACGT | 1.35
GAAATTAGAC | 1.02
CAGATTGTGA | 1
GACAGATGGC | 0.956
TTTACGCCTT | 1.05
AACCAGCACT | 1.07
TTAAGGCAAC | 0.993
TGGGGGCATG | 1.04
ATTTCCTACG | 2.71
GTTCAATGAG | 0.972
TGGCTGTATA | 0.964
TCCTGTAACG | 0.969

Sequence | switch fluorescence ratio
CTTTATGGCT | 1.01
GCTCCAACTT | 1.1
CACCGCGCCG | 1.13
ATACTGGAGG | 1.01
CGATCAGGGG | 1.12
TATTACCTAT | 1.06
TACCGGAACA | 1.03
TTAATATCGT | 0.986
CTCGGGAATA | 2.72
TGCCCGAATT | 1.04
TTAACGCGTA | 1.01
GGTGAGTGTC | 1.01
AATCGGGGTA | 0.976
AGTACTTCTG | 0.986
CCTGCGCTAG | 4.91
GCACCGCGTT | 1.08
AGGGCTTGGG | 0.964
GAGGCCTCCT | 0.965
GTTCCGTGAG | 1.07
TTTTTGTAC | 1.06
CATTAAAGCT | 1.11
TCGTCACTTT | 0.994
GTAATCTAAC | 1.02

Sequence | switch fluorescence ratio
TTAGTACTAC | 1.01
GGTACTGTCT | 1.03
CTTAAAAGCT | 1.15
GTCAGCATCT | 1.07
CGGATAGGGT | 0.954
TTGCATTAGC | 1.09
GCACAGGGAC | 1.16
GTGAAGGAAG | 1
CTCAGTTATT | 1.02
AGTGGTCTCG | 0.966
TCCCGTCGCT | 1.11
ATTGCCTAAG | 0.977
TAAGCGATTG | 0.991
TCTGATGTAG | 0.99
ATTTAACGT | 0.996
ATTGTACTGT | 1.04
CTAAGTAGCT | 1
ATGTCCTCGG | 0.998
AAGGTTCTAT | 1.03
